Publication PMC10416995 (2023)

B1: soluble recombinant integrin αIIbβ3 [not stated] / sCD40L ([…]), wild type, lacking the KGD motif [not stated] (parent complex)
chain 1: not shown
chain 2: GPNICTTRGVSSCQQCLAVSPMCAWCSDEALPLGSPRCDLKENLLKDNCAPESIEFPVSEARVLEDRPLSDKGSGDSSQVTQVSPQRIALRLRPDDSKNFSIQVRQVEDYPVDIYYLMDLSYSMKDDLWSIQNLGTKLATQMRKLTSNLRIGFGAFVDKPVSPYMYISPPEALENPCYDMKTTCLPMFGYKHVLTLTDQVTRFNEEVKKQSVSRNRDAPEGGFDAIMQATVCDEKIGWRNDASHLLVFTTDAKTHIALDGRLAGIVQPNDGQCHVGSDNHYSASTTMDYPSLGLMTEKLSQKNINLIFAVTENVVNLYQNYSELIPGTTVGVLSMDSSNVLQLIVDAYGKIRSKVELEVRDLPEELSLSFNATCLNNEVIPGLKSCMGLKIGDTVSFSIEAKVRGCPQEKEKSFTIKPVGFKDSLIVQVTFDCDCACQAQAEPNSHRCNNGNGTFECGVCRCGPGWLGSQC
chain 3: QNPQIAAHVISEASSKTTSVLQWAEKGYYTMSNNLVTLENGKQLTVKRQGLYYIYAQVTFCSNREASSQAPFIASLCLKSPGRFERILLRAANTHSSAKPCGQQSIHLGGVFELQPGASVFVNVTDPSQVSHGTGFTSFGLLKL

Variants of: B1
Test: ELISA-type binding assay (CD40L immobilized to wells; bound soluble αIIbβ3 detected with anti-β3 mAb and HRP-conjugated anti-mouse IgG); 25 µg/mL CD40L coating; 1 mM Mn2+; 1 hr at room temperature; parent: 0.53; read off a plot

response [OD450]	Variant
~0.55	chain 3 K26T
~0.33	chain 3 S11R, chain 3 E12G
~0.28	chain 3 L38P

Variants of: B1
Test: ELISA-type binding assay (CD40L immobilized to wells; bound soluble αIIbβ3 detected with anti-β3 mAb and HRP-conjugated anti-mouse IgG); 50 µg/mL CD40L coating; 1 mM Mn2+; 1 hr at room temperature; parent: 0.64; read off a plot

response [OD450]	Variant
~0.7	chain 3 K26T
~0.53	chain 3 S11R, chain 3 E12G
~0.37	chain 3 L38P
